About 120 (0.25%) of roughly 48,000 compounds were called active. Another 4% or so got no clear call; they are omitted. Calls follow the shape of the dose curve; as a rule, active = well fitted activation curve with a large enough effect; inconclusive = small, poorly fitted or top-dose-only effect, or another doubt; inactive = no such curve, though single readings can be large or run the other way. This is one part of the list.
Experiment: Primary qHTS for Identification of Small Molecule Activators of Huntingtin-Antisense Promoter Activity; also: nearly all actives have a fitted effect of over 55% in size
Conditions: HEK293 HTT-AS promoter firefly luciferase reporter, 24 h; series mostly up to 57.5 µM; activity change, positive = activation: at the top concentration
How it was run: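 HEK293 Fluc reporter, 2,500 cells/well, 24 h pre-culture; cpds up to 57.5 uM final, 24 h 37 degrees C; Dual-Glo, 10 min RT; normalized vehicle = 0%, zero RLU = -100%.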
In the case of `COc1ccc(NC(=O)Cn2ncc3c([nH]c4ccccc43)c2=O)cc1Cl`, the “activity change, positive = activation” value is reported as inactive: -8.58%.
In the case of `CCN(CC)CCCNC(=O)c1cn(C)c2ccc(S(=O)(=O)N3CCOCC3)cc2c1=O`, the “activity change, positive = activation” value is reported as inactive: -4.2%.
In the case of `CCCn1cc(S(=O)(=O)c2ccccc2)c(=O)c2cc(F)c(N3CCCC3)cc21`, the “activity change, positive = activation” value is reported as inactive: 0.309%.
With `CCc1ccccc1NC(=O)c1cc(S(=O)(=O)NC2CCCC2)ccc1F` the “activity change, positive = activation” value was inactive: -20.7%.
In the case of `Nc1ccc(S(=O)(=O)Nc2ccccc2)cc1`, the “activity change, positive = activation” value is reported as inactive: 1.01%.
With `COc1ccc(-n2nc(C(=O)N3CCN(c4cccc(C)c4)C(C)C3)c3c4ccccc4n(C)c3c2=O)cc1` (stereo unspecified) the “activity change, positive = activation” value was inactive: 2.3%.
In the case of `CCCn1ccc2c(OCC(=O)Nc3ccc(F)cc3F)cccc2c1=O`, the “activity change, positive = activation” value is reported as inactive: -21%.
With `Cc1cccc(OCC(=O)Nc2ccc3c(c2)N(C)C(=O)c2ccccc2S3)c1` the “activity change, positive = activation” value was inactive: -31.7%.
For `Cc1cccc(NC(=O)CSc2nc3c([nH]c4ccccc43)c(=O)n2-c2ccc(F)cc2)c1C`, the “activity change, positive = activation” value was inactive: -22.8%.
For `COc1ccc(NC(=O)c2ccco2)cc1NC(=O)COc1ccccc1Cl`, the “activity change, positive = activation” value was inactive: -22.6%.
With `Cc1ccc(C(=O)N/C(=C\c2cn(S(=O)(=O)N(C)C)c3ccccc23)C(=O)NCCCn2ccnc2)cc1` the “activity change, positive = activation” value was inactive: -13.9%.
For `CCOc1ccccc1N(C)C(=O)NCc1noc2ccccc12`, the “activity change, positive = activation” value was inactive: -8.14%.
In the case of `CCn1cc(C(=O)NC(C)c2ccccc2)c(=O)c2cc(S(=O)(=O)N3CCc4ccccc4C3)ccc21` (stereo unspecified), the “activity change, positive = activation” value is reported as inactive: -28.4%.
In the case of `Cc1ccc(-n2nc(C)c3nc(CCC(=O)Nc4ccc(F)cc4)c(=O)n(C)c32)cc1`, the “activity change, positive = activation” value is reported as inactive: -1.16%.
For `Cc1ccc(NC(=O)Cn2cc(S(=O)(=O)N3CCCC3)c(S(=O)(=O)N3CCCC3)c2)c(C)c1`, the activity change, positive = activation was inactive: 8.97% [at 11.5 µM, percent change from vehicle, -100% = no light].
With `CC(C)Nc1cccnc1N1CCN(C(=O)c2cc3cc(NS(C)(=O)=O)ccc3[nH]2)CC1` the “activity change, positive = activation” value was inactive: -15.1%.
With `O=C(NCCc1ccc(Cl)cc1)c1cccn1-c1nnc(N2CCCC2)s1` the “activity change, positive = activation” value was inactive: -9.11%.
For `COc1ccc(C(=O)c2cn(CC(=O)Nc3ccc4c(c3)OCO4)c3ccc(OC)cc3c2=O)cc1`, the “activity change, positive = activation” value was inactive: -23.1%.
For `Cc1nn(S(=O)(=O)c2ccc(C(C)C)cc2)c(C)c1S(=O)(=O)N1CCCCC1`, the “activity change, positive = activation” value was inactive: -6.43%.
For `Cc1ccc2c(c1)-c1c(cnn1CC(=O)N1CCN(c3cccc(C(F)(F)F)c3)CC1)CO2`, the “activity change, positive = activation” value was inactive: -28.5%.
With `CC(=O)N1CCCc2cc(S(=O)(=O)N3CCCC(C(=O)N4CCN(c5ccccc5F)CC4)C3)ccc21` (stereo unspecified) the “activity change, positive = activation” value was inactive: -34.2%.
In the case of `CC(=O)OC[C@@H]1O[C@@H](n2ccc(=O)[nH]c2=O)[C@H](OC(C)=O)[C@H]1OC(C)=O`, the “activity change, positive = activation” value is reported as inactive: -10.3%.
In the case of `CCc1cccc(C)c1NS(=O)(=O)c1ccc2c(c1)NC(=O)C(C)C(=O)N2` (stereo unspecified), the “activity change, positive = activation” value is reported as inactive: -1.45%.
With `CCOc1ccc(-n2c(=O)c3c4c(sc3n(CC(=O)NCCCOC)c2=O)CCCCC4)cc1` the “activity change, positive = activation” value was inactive: -16.6%.
For `COc1ccc(CNC(=O)CN2C(=O)COc3ccc(S(=O)(=O)N4CCCCCC4)cc32)cc1`, the “activity change, positive = activation” value was inactive: -15.3%.
For `COc1ccc(-n2c(SCC(=O)NCc3ccccc3)nc3ccsc3c2=O)cc1`, the “activity change, positive = activation” value was inactive: -27.9%.
With `COC(=O)c1sccc1S(=O)(=O)N(CC(=O)Nc1cc(C)cc(C)c1)c1ccc(Cl)cc1` the “activity change, positive = activation” value was inactive: -34.8%.
For `COc1ccc(C2(C#N)CCC(C(=O)O)CC2)cc1OC1CCCC1` (stereo unspecified), the “activity change, positive = activation” value was inactive: -26.3%.
In the case of `COc1ccc(NC(=O)c2nn(C)c3c2CSc2ccc(C)cc2-3)cc1OC`, the “activity change, positive = activation” value is reported as inactive: -36%.
With `COc1ccc(CNC(=O)c2ccc(CNS(=O)(=O)c3ccc(OC)cc3)cc2)cc1` the “activity change, positive = activation” value was inactive: -6.05%.
In the case of `Cc1[nH]c(C=C2C(=O)Nc3ccccc32)c(C)c1CCC(=O)O`, the “activity change, positive = activation” value is reported as inactive: -90.3%.
For `COCCCNC(=O)c1ccc(Cn2c(=O)c3ccccc3n(Cc3ccc(C)cc3)c2=O)cc1`, the “activity change, positive = activation” value was inactive: -18.3%.
For `COCCOC(=O)Cn1nnc2sc(-c3ccccc3)cc2c1=O`, the “activity change, positive = activation” value was inactive: -0.336%.
In the case of `CCOC(=O)c1ccc(NC(=O)CC2Nc3cc(C)c(C)cc3NC2=O)cc1` (stereo unspecified), the “activity change, positive = activation” value is reported as inactive: -89.9%.
In the case of `COc1ccc(-c2cn3nc(SCC(=O)Nc4ccccc4F)ccc3n2)cc1`, the “activity change, positive = activation” value is reported as inactive: -91.8%.
In the case of `COC(=O)c1scc(-c2ccc(C)cc2)c1S(=O)(=O)Nc1ccc(NC(C)=O)cc1`, the “activity change, positive = activation” value is reported as inactive: -27.4%.
In the case of `Cc1cc(C)c(NC(=O)COCc2cc(-c3cccs3)on2)c(C)c1`, the “activity change, positive = activation” value is reported as inactive: -3.88%.
For `COc1ccc(S(=O)(=O)N(CC(=O)NCCSc2ccccc2)c2ccc(Cl)cc2)cc1`, the “activity change, positive = activation” value was inactive: -4.67%.
For `O=C(CSc1nccn1Cc1ccc(F)cc1)NCc1ccccc1`, the “activity change, positive = activation” value was inactive: 6.02%.
In the case of `Cc1cccc(OCC(=O)Nc2cccc(C(=O)OCc3cc(=O)n4c(C)csc4n3)c2)c1`, the “activity change, positive = activation” value is reported as inactive: -23.4%.
For `CCc1cccc(N2C(=O)CSC23C(=O)N(Cc2ccccc2F)c2ccccc23)c1` (stereo unspecified), the “activity change, positive = activation” value was inactive: -40.1%.
For `COc1ccc(-n2ncc(C(=O)NCc3ccc4c(c3)OCO4)c2C2CCN(C(=O)OC(C)(C)C)CC2)cc1`, the “activity change, positive = activation” value was inactive: -31.5%.
For `CCN(CC)c1ccc2cc(-c3nc(-c4ccccc4)no3)c(=O)oc2c1`, the “activity change, positive = activation” value was inactive: 20.9%.
With `Cc1ccc(CNC(=O)c2c(-c3ccc(F)cc3F)noc2C)o1` the “activity change, positive = activation” value was inactive: -13.6%.
With `Cc1cc(C)c(NC(=O)Cn2nnc(C(=O)NCc3cccs3)c2N)c(C)c1` the “activity change, positive = activation” value was inactive: 15.3%.
In the case of `COc1ccc(-c2cn3nc(N4CCCC(C(=O)Nc5cc(Cl)ccc5OC)C4)sc3n2)cc1` (stereo unspecified), the “activity change, positive = activation” value is reported as inactive: -0.097%.

Source: PubChem BioAssay AID1508624 (National Center for Advancing Translational Sciences (NCATS), 2021)
